In all, about 46,000 compounds went through this assay and about 60 (0.1%) were called active. About 3% were inconclusive and are not listed. Calls follow the shape of the dose curve; as a rule, active = well fitted inhibition curve with a large enough effect; inconclusive = small, poorly fitted or top-dose-only effect; inactive = no such curve, though single readings can be large or run the other way. This is one part of the list.

The nature of the assay: Primary qHTS assay for Inhibitors of ovarian cancer metastasis using an organotypic tumor microenvironment (TME) model. Also: nearly all actives have a fitted effect of over 65% in size.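 As to activity change, negative = inhibition: plate controls were DMSO wells for no effect and tomatine positive control wells for full effect.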 The settings on record: SKOV3ip1-GFP adhesion/invasion on 3D omental model, fluorescence; series mostly up to 45.8 µM; activity change, negative = inhibition: at the top concentration. Summed up: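 Primary human omental fibroblast/mesothelial 3D culture pre-formed 48 h. SKOV3ip1-GFP cells added with compounds (0.36-46 umol/L), incubated 2 h RT/16 h 37 C, fixed; GFP cells quantified at 488/509 nm.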
(In general: qHTS replaces the single test concentration by a dilution series.)
`CCOC(=O)C1=C(CN2CCN(c3ccc(OC)cc3)CC2)NC(=O)NC1c1ccc(Cl)cc1` (configuration not stated): the “activity change, negative = inhibition” value is inactive: -18.2%.

As for `CCOc1ccc(NC(=O)C2CCCN(S(=O)(=O)c3c(C)noc3/C=C/N(C)C)C2)cc1` (configuration not stated), the “activity change, negative = inhibition” value was inactive: -6.99%. In the case of `Cc1cc(CN2CCN(c3cccc(C)c3C)CC2)cs1`, the “activity change, negative = inhibition” value was inactive: -7.07%.

Regarding `C[C@@H]1CC[C@@]2(OC1)OC1CC3C4CC=C5CC(O)CCC5(C)C4CCC3(C)C1[C@@H]2C` (some centres not stated), the “activity change, negative = inhibition” value is inactive: 9.32%.

In the case of `COCCNC(=O)CSc1nc(-c2ccccc2)[nH]c1-c1ccc(OC)cc1`, the “activity change, negative = inhibition” value is inactive: 7.64%. In the case of `Cc1cc(C)cc(NC(=O)c2cnc3sc(N4CCCC4)nn3c2=O)c1`, the “activity change, negative = inhibition” value was inactive: -0.736%. Consider `CCOC(=O)c1c(S(=O)(=O)N2CCC(C(=O)Nc3ccc(C)cc3C)CC2)c(C)n(C)c1C`, for which the “activity change, negative = inhibition” value was inactive: -9.97%. `CCc1ccccc1NC(=O)c1nnn(Cc2ccc(Cl)cc2)c1N`: the “activity change, negative = inhibition” value is inactive: -17.3%. The same measure, in the same setting: as for `NCCc1nc2cccnc2n1-c1ccccc1`, the figure is inactive: -21.3%; as for `Cc1ccc(-c2nc(CSc3nncn4c3cc3occc34)c(C)o2)cc1`, inactive: 28.9%.

As for `COc1ccc(C)cc1NC(=O)N1CC(C)Sc2ccccc21` (configuration not stated), the “activity change, negative = inhibition” value is inactive: 2.54%.

For `Cc1ccc(Cn2cc(C(=O)c3ccc4c(c3)OCO4)c(=O)c3cc(C)ccc32)cc1`, the “activity change, negative = inhibition” value was inactive: -10.9%.

Take `O=C(Nc1cccc(C(F)(F)F)c1)c1cc2nc(-c3ccc4c(c3)OCO4)cc(C(F)(F)F)n2n1`: the “activity change, negative = inhibition” value is inactive: 3.56%. Regarding `Cc1ccc(C)c(NC(=O)Cn2c(=O)n(-c3ccc(CC(=O)NCC4CCCO4)cc3)c(=O)c3ccccc32)c1` (configuration not stated), the compound was called inactive.

For the compound `Cc1ccc(OCC(=O)NCC2(N(C)C)CCCCC2)cc1C`, the “activity change, negative = inhibition” value was inactive: 14.8%. Still for that read-out and setting: as for `CC1CN(C(=O)CCC(=O)Nc2cc(F)ccc2F)c2ccccc2S1` (configuration not stated), the figure is inactive: 2.32%; as for `Cc1ccc(NC(=O)c2c(C)nc3sc(C(=O)Nc4ccc(F)cc4)c(N)c3c2-c2ccc(C)o2)c(C)c1`, inactive: 1.67%; as for `Cc1ccc(CNc2oc(-c3ccc(COc4ccc(C)cc4)o3)nc2C#N)cc1`, inactive: 8.64%. Same read-out and setting: as for `CCCOc1ccc(C(=O)NCC2OCCc3ccccc32)cc1` (configuration not stated), the figure is inactive: -14.7%; as for `CCCc1nc2ccccc2n1CC(O)COc1ccc(C(=O)OC)cc1` (configuration not stated), inactive: -6.43%; as for `CCc1ccc(CNC(=O)c2cc3ccccn3n2)cc1`, inactive: 0.329%. With `CCOC(=O)C1CCCN(C(=O)Cn2ncc3c(C)n(Cc4ccccc4Cl)c(C)c3c2=O)C1` (configuration not stated), the “activity change, negative = inhibition” value is inactive: 4.64%. Regarding `COc1ccc(-n2c(SCC(=O)N3CCc4ccccc43)nc3c([nH]c4ccccc43)c2=O)cc1`, the result was inactive. Regarding `COc1ccc(C(=O)Nc2ccc3oc(-c4ccc(F)cc4Cl)nc3c2)cc1`, the “activity change, negative = inhibition” value was inactive: -2.77%. `Cc1ccc2nc(NC(=O)CSc3nccn3-c3ccc(Cl)cc3)sc2c1`: the “activity change, negative = inhibition” value is inactive: -3.78%. Turning to `CC(C)(C)OC(=O)N1CCC(c2c(C(=O)N3CCN(c4ccccn4)CC3)cnn2-c2ccccc2)CC1`, the “activity change, negative = inhibition” value was inactive: 12.7%.

As for `COc1ccccc1CNc1cc(C)nc2nc(-c3ccc(C)cc3)nn12`, the “activity change, negative = inhibition” value was inactive: -10.9%.

With `COc1ccc(-c2nc(C)c(CCNC(=O)c3cccs3)s2)cc1OC`, the “activity change, negative = inhibition” value is inactive: 5.68%. Regarding `COCCCN1C(=O)c2ccccc2CC1(C)C(=O)NC1CCCCC1` (configuration not stated), the “activity change, negative = inhibition” value was inactive: 3.53%. On the same count and under the same terms, as for `COc1ccc(C2C(C(=O)Nc3ccc(Cl)cc3)=C(C)Nc3nc(SCc4cccc(C)c4)nn32)cc1OC` (configuration not stated), the figure is inactive: -17.8%; as for `CCCn1c(=O)c2[nH]c(C34CC5CC3C[C@@H](C5)C4)nc2n(CCC)c1=O`, inactive: -4.48%. Regarding `O=C(Nc1ccc(Cl)cc1F)c1cnc2sc(N3CCOCC3)nn2c1=O`, the “activity change, negative = inhibition” value is inactive: -1.06%.

As for `O=C(CSc1nnc(-c2ccccc2F)o1)Nc1cccc(C(F)(F)F)c1`, the “activity change, negative = inhibition” value was inactive: 1.91%. For the compound `CCC1CCCCN1S(=O)(=O)c1ccc(C(=O)Nc2sc3c(c2C(N)=O)CCC3)cc1` (configuration not stated), the “activity change, negative = inhibition” value is inactive: -9.92%. Regarding `Cc1ccc(NC(=O)Cn2c(=O)oc3cc(S(=O)(=O)N4CCCCC4)ccc32)c(Cl)c1`, the “activity change, negative = inhibition” value is inactive: -6.58%. On the same count and under the same terms, as for `Cc1cccc(Cn2c(SCc3ccc(C(=O)NCc4ccccc4F)cc3)nc3ccncc32)c1`, the figure is inactive: -26%. As to `COCCNC(=O)Cn1c(=O)n(CCCCCC(=O)NCc2ccccc2Cl)c(=O)c2sccc21`, the call was inactive.

As to `c1ccc(-c2noc(-c3cccnc3NCc3ccco3)n2)cc1`, the “activity change, negative = inhibition” value was inactive: 0.955%.

Take `COc1ccccc1-c1noc(-c2ccc(NC3CCCCC3)c([N+](=O)[O-])c2)n1`: the “activity change, negative = inhibition” value is inactive: -9.02%. Take `Cc1c(-c2cccc(NC(=O)Nc3ccc(Cl)cc3)c2)nc2ncccn12`: the “activity change, negative = inhibition” value is inactive: -6.35%.

Turning to `CC(C)(C)C1CCc2c(sc3nc(-c4cc5ccccc5oc4=O)[nH]c(=O)c23)C1` (configuration not stated), the “activity change, negative = inhibition” value was inactive: 13.7%. `CC1CCCCN1C(=O)Cn1ncc2c3ccccc3n(Cc3ccccc3F)c2c1=O` (configuration not stated): the “activity change, negative = inhibition” value was inactive: -17.9%. The same measure, in the same setting: as for `COc1ccc(CN(C(=O)c2cc3ccccc3oc2=O)C2CCS(=O)(=O)C2)cc1OC` (configuration not stated), the figure is inactive: 2.18%. Same read-out and setting: as for `CCN(CC)CCCNC(=O)CCCn1ncn2c(cc3occc32)c1=O`, the figure is inactive: 4.46%. On the same count and under the same terms, as for `COc1cc2c(cc1OC)CN(CCc1ccc(NC(=O)c3cccc4c(=O)c5cccc(OC)c5[nH]c34)cc1)CC2`, the figure is inactive: 0.448%; as for `O=c1c(=O)n(Cc2ccc(Cl)cc2)ccn1Cc1ccc(F)cc1`, inactive: -23.9%.

For the compound `COc1cccc(NC(=O)CCc2nc3c(C)nn(-c4ccc(C)cc4)c3n(C)c2=O)c1`, the “activity change, negative = inhibition” value is inactive: 5.68%.

With `CCCCN(CCCNC(=O)CN1N=C(c2ccc(C)cc2)CCC1=O)c1ccccc1`, the “activity change, negative = inhibition” value is inactive: 5.88%. For `Cc1ccc2c(c1)-c1c(cnn1CC(=O)N1CCN(c3ccccc3F)CC1)CO2`, the outcome was inactive. Turning to `COCCCNC(=O)c1cnc2sc(N3CCCCCC3)nn2c1=O`, the “activity change, negative = inhibition” value is inactive: 12.2%. As for `Cc1cc(C)n2c(Nc3ccc(C(C)C)cc3)c(-c3ccsc3)nc2n1`, the compound was classed as inactive. Turning to `CCc1nc2cccnc2n1-c1ccc(CC(=O)Nc2c(C)cccc2C)cc1`, the “activity change, negative = inhibition” value is inactive: 0.0746%.

`CCN(CC)C(=O)CSc1nc2ccsc2c(=O)n1Cc1ccccc1Cl`: the “activity change, negative = inhibition” value was inactive: 10.2%. Same read-out and setting: as for `Cc1ccc(-c2nc(CNC(=O)Nc3ccccc3)c(C)o2)cc1`, the figure is inactive: -18.8%; as for `COc1ccc(-c2cn3cccnc3n2)cc1NC(=O)Cc1ccccc1`, inactive: -5.39%; as for `COc1cccc(OCC(=O)NCCS(=O)(=O)N2CCN(c3ccccc3F)CC2)c1`, inactive: -18%. Still for that read-out and setting: as for `Cc1oc2ncn(CC(C)C)c(=O)c2c1C(=O)NCCc1ccccc1`, the figure is inactive: -0.277%; as for `COc1ccc(Cl)cc1NC(=O)CN1C(=O)C(C)(C)c2cc(S(=O)(=O)N3CCCCC3)ccc21`, inactive: 0.0477%. Same read-out and setting: as for `O=P(O)(O)C(O)(Cc1cccnc1)P(=O)(O)O`, the figure is inactive: -24.8%.

Regarding `Cc1ccc2nc(Cl)c3cc(C(=O)N4CCCCC4C)sc3c2c1` (configuration not stated), the compound was classed as inactive. Take `Cc1ccccc1Nc1nn2c(=O)c3ccc(C(=O)NCCc4ccc(Cl)cc4)cc3nc2s1`: the compound was called inactive. Consider `Cc1ccccc1CNC(=O)c1oc2c(c1C)-c1[nH]ncc1CC2`, for which the “activity change, negative = inhibition” value is inactive: -1.71%.

These data come from PubChem BioAssay AID1963576 (National Center for Advancing Translational Sciences (NCATS), 2024).
